Measurements from paper PMC3887210, “Conserved Distal Loop Residues in the Hsp104 and ClpB Middle Domain Contact Nucleotide-binding Domain 2 and Enable Hsp70-dependent Protein Disaggregation*” (The Journal of Biological Chemistry, 2013).

B1: Hsp104^L431W (natural protein)
chain: not shown
notes: Hsp104 of Saccharomyces cerevisiae with L431W in the middle domain distal loop; source: E. coli BL21-DE3 RIL, purified (Affi-Gel Blue, Resource Q anion exchange, size exclusion)
B2: Hsp104^D438W (natural protein)
chain: not shown
notes: Hsp104 of Saccharomyces cerevisiae with D438W in the middle domain distal loop; source: E. coli BL21-DE3 RIL, purified (Affi-Gel Blue, Resource Q anion exchange, size exclusion)
B3: Hsp104^A430W (natural protein)
chain: not shown
notes: Hsp104 of Saccharomyces cerevisiae with A430W in the middle domain distal loop; source: E. coli BL21-DE3 RIL, purified (Affi-Gel Blue, Resource Q anion exchange, size exclusion)

Target: the molecule itself
Experiment: SEC; Superose 6 10/300; 35 uM monomer; 40 mM HEPES-KOH pH 7.4, 150 mM KCl, 10 mM MgCl2, 1 mM DTT; data not shown

Stoichiometry N, 6:
B1
B2
B3
